Variants at the background level are over-represented here.

Data on 167 variants can be found in the RNAGym collection of RNA variant scans (doi:10.1101/gad.245936.114).

B1: tRNA (parent)
chain: CUCUCGGUAGCCAAGUUGGUUUAAGGCGCAAGACUUUAAUUUAUCACUACGAAAUCUUGAGAUCGGGCGUUCGACUCGCCCCCGGGAGAUUUUUUCCUCGAGCAA

Variants of B1 are the subject of the data set. As to the kind of experiment: nonsense suppression (GFP-seq) (ratio to wild type); higher = more function; SUP4oc tRNA, yeast GFP reporter sort-seq. A digest of the protocol:
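Yeast were grown in raffinose/galactose medium with 80 mg/L adenine, each strain bearing a genome-integrated ochre-suppressor tRNA variant from a ~3% random-mutation library, a galactose-driven GFP ochre reporter, and RFP. After sorting into GFP/RFP bins, every bin was sequenced on an Illumina platform at phred ≥30. The GFPSEQ value, a measure of nonsense suppression, is the weighted bin median GFP/RFP relative to the unmutated parent tRNA, using each variant's estimated cell share per bin as the weight. Only variants with ≥100 reads and ≥30 cells were included.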
On to U4C A14C U57C A62U C68A, for which the nonsense suppression is at most 0.026.
C34U C56A C82G: the nonsense suppression is at most 0.026.
For the variant G6U A24U U57C G67A, the nonsense suppression was at most 0.026.
As to C5U U20C U21C G61A, the nonsense suppression was at most 0.026.
As for A24G G59U G65A, the nonsense suppression is at most 0.026.
Turning to G28U C56A C79A, the nonsense suppression is at most 0.026.
The result for A23U U70G reads at most 0.026; that for C3A U17A, at most 0.026; that for C12U G19U C27U U63A G65A A87U, at most 0.026.
Consider C1G U57G C72A C77G, for which the nonsense suppression is at most 0.026.
On to U70C U71G, for which the nonsense suppression is at most 0.026.
On to G10C C83G A89C, for which the nonsense suppression is at most 0.026.
The result for U16C A23C C34G G84C reads at most 0.026.
As for U2G G6C A89C, the nonsense suppression is at most 0.026.
In the case of A30U U76G, the nonsense suppression came to 0.0538.
For the variant G73A G88U, the nonsense suppression was determined as 0.0757.
For C12U G25U, the nonsense suppression worked out at 0.192.
Turning to C75G G78C, the nonsense suppression was 0.361.
The result for G19U G26A reads at most 0.026; that for U21A C27A A33C U58C, at most 0.026.
Consider C1U G7A, for which the nonsense suppression is at most 0.026.
As for C3G U57C C75A G78A, the nonsense suppression was at most 0.026.
Regarding C34A U58G G86A, the nonsense suppression was at most 0.026.
For the variant G10C U71A A74U A87C, the nonsense suppression is at most 0.026.
On to A62G C82G, for which the nonsense suppression is at most 0.026.
Turning to G19C G28U U35G G84A, the nonsense suppression was at most 0.026.
With C68U C82G, the nonsense suppression is at most 0.026.
As to C5U C11A G61C G84C G85A, the nonsense suppression is at most 0.026.
Regarding C3G C12U U16C U55G, the nonsense suppression is at most 0.026.
Consider A60C G73A, for which the nonsense suppression was at most 0.026.
As to G25C C34G U57G C83G, the nonsense suppression was at most 0.026.
Regarding G18C G78C, the nonsense suppression was at most 0.026.
In the case of G6A U63G, the nonsense suppression was at most 0.026.
As to C77G G78C, the nonsense suppression was at most 0.026.
Turning to C1U G26U, the nonsense suppression is at most 0.026.
On to A9C A13C, for which the nonsense suppression was 1.15.
On to U2A U16G G25C, for which the nonsense suppression is at most 0.026.
For the variant C1G U4G C11G C64A, the nonsense suppression is at most 0.026.
On to G25A G59C U63C, for which the nonsense suppression was at most 0.026.
In the case of U8A C27G U63A, the nonsense suppression was at most 0.026.
Turning to G28U A60C G69A, the nonsense suppression is at most 0.026.
With C12U U17G U35A, the nonsense suppression is at most 0.026.
Regarding U17A U21A A31U C75U C81G, the nonsense suppression is at most 0.026.
For the variant C5U A62G C77G C80G, the nonsense suppression was at most 0.026.
The result for A62U C64G reads at most 0.026; that for U70A C72A, at most 0.026; that for G26C C34G U55C G66C, at most 0.026.
For G59C G88U, the nonsense suppression was at most 0.026.
On to G18A A89C, for which the nonsense suppression is at most 0.026.
Regarding G10C G66U, the nonsense suppression is at most 0.026.
For the variant U35A C77A, the nonsense suppression was at most 0.026.
As for A9U G10C C11G A33G U76C G88A, the nonsense suppression was at most 0.026.
C29G A33G: the nonsense suppression is at most 0.026.
For G6C C27U G67A G85U, the nonsense suppression is at most 0.026.
Consider U17A C83A, for which the nonsense suppression is at most 0.026.
On to U8C A89C, for which the nonsense suppression is at most 0.026.
C1G A23G C56U G66U U76G: the nonsense suppression is at most 0.026.
In the case of G18U A33G U76C G78A G85A, the nonsense suppression is at most 0.026.
For the variant G10A U70C G78C A89C, the nonsense suppression is at most 0.026.
With C5U G28A A30G, the nonsense suppression is at most 0.026.
The result for G10U A14G reads at most 0.026.
Take U20A G25C: the nonsense suppression is at most 0.026.
Regarding U4C U63G, the nonsense suppression amounted to 0.0946.
In the case of A13U U22G A23C, the nonsense suppression was at most 0.026.
With A14C A23U G32A U35C G66A G69A U70C, the nonsense suppression is at most 0.026.
The result for U2G C75G reads at most 0.026.
The result for G6C A9G A30U reads at most 0.026; that for A9G G26C, at most 0.026; that for C34G G86U, at most 0.026.
Take U35A C56U: the nonsense suppression was at most 0.026.
With A13U G67U, the nonsense suppression is at most 0.026.
For U20A A87G, the nonsense suppression was determined as 0.226.
For the variant C34G C80G, the nonsense suppression is at most 0.026.
As for G59U G78A, the nonsense suppression was at most 0.026.
G19A U21G C64U: the nonsense suppression was at most 0.026.
Turning to U20A A24C A30U G84U, the nonsense suppression was at most 0.026.
In the case of C1A C83G, the nonsense suppression was at most 0.026.
On to U55A U76C G78U, for which the nonsense suppression is at most 0.026.
The result for A54U U70A reads at most 0.026; that for U22G A30C A31U U76G, at most 0.026; that for U4A A89U, at most 0.026.
Take C3U G15C G18C U20G G25U C56G G88A: the nonsense suppression is at most 0.026.
With A24G, the nonsense suppression amounted to 0.188.
Then C12U U20G U70C A74C, with at most 0.026; and A62U G67C, with at most 0.026.
G10C C27G G73C: the nonsense suppression was at most 0.026.
As to U21A C79A, the nonsense suppression is at most 0.026.
As to C5U A31G G66A, the nonsense suppression is at most 0.026.
Turning to U16A U71C G73C G78A A87C, the nonsense suppression was at most 0.026.
Turning to A9G C80A, the nonsense suppression is at most 0.026.
Turning to G25A U55G, the nonsense suppression was at most 0.026.
Then C34U U57A G59C, with at most 0.026; and C1U G61U U76C, with at most 0.026; and G7A A24C U55C, with at most 0.026.
The result for G6C G15A reads at most 0.026.
For G7A A74C, the nonsense suppression was at most 0.026.
Turning to A23C G26U G85C, the nonsense suppression is at most 0.026.
The result for U20G A87U reads at most 0.026; that for G15U G61U A74G, at most 0.026.
As for G65A G88U, the nonsense suppression is at most 0.026.
Turning to G7U G59A, the nonsense suppression is at most 0.026.
For the variant C1U C72A, the nonsense suppression is at most 0.026.
As to C1U C27G A62U, the nonsense suppression was at most 0.026.
In the case of U20A U58G U71A, the nonsense suppression was at most 0.026.
Then C1A G32A, with at most 0.026.
With A14G C29A A60C, the nonsense suppression was at most 0.026.
In the case of C11U C27U, the nonsense suppression is at most 0.026.
Then C27A C34G, with at most 0.026.
C5A U16C: the nonsense suppression was at most 0.026.
With C1G C11U U17A, the nonsense suppression is at most 0.026.
For the variant A30C A31G, the nonsense suppression was at most 0.026.
On to C29G A60C G66C G85C, for which the nonsense suppression is at most 0.026.
Turning to C3U G15A G67C C79A, the nonsense suppression is at most 0.026.
Then U2A G6U A14G G85A, with at most 0.026; and C1A G67C G84U, with at most 0.026; and C12U G15C C72G C77U, with at most 0.026.
As to U58C C81G, the nonsense suppression is at most 0.026.
On to U22G U55C U57A G65A, for which the nonsense suppression is at most 0.026.
Then U55C A87C, with 0.0719.
The result for A14G U57C U63A C81G reads at most 0.026; that for G26A G69C A74U, at most 0.026; that for C5U G18U U21C A60C, at most 0.026.
With G15C G18U U76G A87G, the nonsense suppression is at most 0.026.
Consider A9G G19U C72G A89C, for which the nonsense suppression is at most 0.026.
As to G6C G69U G88C, the nonsense suppression was at most 0.026.
Turning to A74U C80G C83U G86C, the nonsense suppression was at most 0.026.
Then G69C G88U, with at most 0.026; and U71G C79A, with at most 0.026; and C11A A14G U63C, with at most 0.026.
Regarding A14C G65A, the nonsense suppression is at most 0.026.
Take A9C G59C G73A: the nonsense suppression is at most 0.026.
Regarding U2G G26U G69U, the nonsense suppression was at most 0.026.
For U57A U63C C64U C83G, the nonsense suppression was at most 0.026.
For the variant G6A A23G U58G G73C G84C, the nonsense suppression is at most 0.026.
As for U17G U21A U63A, the nonsense suppression was at most 0.026.
G7A U16C: the nonsense suppression was at most 0.026.
In the case of C34U G85U, the nonsense suppression is at most 0.026.
C11G C80G: the nonsense suppression was at most 0.026.
Then C3U C5G U22C G65A G66C, with at most 0.026; and G6A U20C, with at most 0.026; and U2G A23U U58G G88U, with at most 0.026.
Consider A13G G15C U20A A33G, for which the nonsense suppression was at most 0.026.
Consider C3U G26C G32U U35G U76G G85U, for which the nonsense suppression was at most 0.026.
Take G6C A13U: the nonsense suppression was at most 0.026.
With U16C C68A G88U, the nonsense suppression is at most 0.026.
Then G19A C34G U70A, with at most 0.026; and C68A C82G, with at most 0.026.
Then G6U U76A G86A, with at most 0.026.
For C11A U70G, the nonsense suppression was at most 0.026.
In the case of G10U G18C C64A G66A, the nonsense suppression is at most 0.026.
On to G69A U71G, for which the nonsense suppression was at most 0.026.
For U4C G86C, the nonsense suppression turned out to be 0.162.
For G6C U21C G85U, the nonsense suppression is at most 0.026.
Regarding A9G C27U U70C G84C, the nonsense suppression is at most 0.026.
Take A31C A54G U63G: the nonsense suppression is at most 0.026.
As for G73C C77A, the nonsense suppression is at most 0.026.
As to U2G G67C G88A, the nonsense suppression was at most 0.026.
As to A30G C56G, the nonsense suppression is at most 0.026.
With C1A U8C, the nonsense suppression was at most 0.026.
With C5A A62U, the nonsense suppression is at most 0.026.
C3G C5U U58G C72G: the nonsense suppression is at most 0.026.
For the variant C3U G32U A89U, the nonsense suppression is at most 0.026.
For G15U U76A, the nonsense suppression is at most 0.026.
With G19U G59C, the nonsense suppression was at most 0.026.
For G10C C11A C56A G78C, the nonsense suppression is at most 0.026.
The result for C80U G86U reads at most 0.026; that for G61C G78U, 0.13.
